Reference: US7619094B2, “Ketoamides with cyclic P4's as inhibitors of NS3 serine protease of hepatitis C virus” (Schering Corporation, priority 2004, dated 2009)

target: Recombinant heterodimeric HCV NS3/NS4A protease (strain 1a) (Hepatitis C virus genotype 1a, UniProt P27958); assay: HCV continuous assay (spectrophotometric HCV NS3/NS4A serine protease inhibition assay); assay type: biochemical, HCV (strain 1a); settings: Table 1; ranges of Ki* values in HCV continuous assay
Source text: The present invention relates to novel HCV protease inhibitors. This utility can be manifested in their ability to inhibit the HCV NS3/NS4a serine protease.
Assay for HCV Protease Inhibitory Activity:
• Spectrophotometric Assay: Spectrophotometric assay for the HCV serine protease can be performed on the inventive compounds by following the procedure described by R. Zhang et al, Analytical Biochemistry, 270 (1999) 268-275, the disclosure of which is incorporated herein by reference. The assay based on the proteolysis of chromogenic ester substrates is suitable for the continuous monitoring of HCV NS3 protease activity. The substrates are derived from the P side of the NS5A-NS5B junction sequence (Ac-DTEDWX(Nva), where X=A or P) whose C-terminal carboxyl groups are esterified with one of four different chromophoric alcohols (3- or 4-nitrophenol, 7-hydroxy-4-methyl-coumarin, or 4-phenylazophenol). Illustrated below are the synthesis, characterization and application of these novel spectrophotometric ester substrates to high throughput screening and detailed kinetic evaluation of HCV NS3 protease inhibitors. Materials and Methods:
Materials: Chemical reagents for assay related buffers are obtained from Sigma Chemical Company (St. Louis, Mo.). Reagents for peptide synthesis were from Aldrich Chemicals, Novabiochem (San Diego, Calif.), Applied Biosystems (Foster City, Calif.) and Perseptive Biosystems (Framingham, Mass.). Peptides are synthesized manually or on an automated ABI model 431A synthesizer (from Applied Biosystems). UV/VIS Spectrometer model LAMBDA 12 was from Perkin Elmer (Norwalk, Conn.) and 96-well UV plates were obtained from Corning (Corning, N.Y.). The prewarming block can be from USA Scientific (Ocala, Fla.) and the 96-well plate vortexer is from Labline Instruments (Melrose Park, Ill.). […] Protein concentrations are determined by the Biorad dye method using recombinant HCV protease standards previously quantified by amino acid analysis. Prior to assay initiation, the enzyme storage buffer (50 mM sodium phosphate pH 8.0, 300 mM NaCl, 10% glycerol, 0.05% lauryl maltoside and 10 mM DTT) is exchanged for the assay buffer (25 mM MOPS pH 6.5, 300 mM NaCl, 10% glycerol, 0.05% lauryl maltoside, 5 μM EDTA and 5 μM DTT) utilizing a Biorad Bio-Spin P-6 prepacked column. • Substrate Synthesis and Purification: The synthesis of the substrates is done as reported by R. Zhang et al, (ibid.) and is initiated by anchoring Fmoc-Nva-OH to 2-chlorotrityl chloride resin using a standard protocol (K. Barlos et al, Int. J. Pept. Protein Res., 37 (1991), 513-520). The peptides are subsequently assembled, using Fmoc chemistry, either manually or on an automatic ABI model 431 peptide synthesizer. […] The combined filtrate and DCM wash is evaporated azeotropically (or repeatedly extracted by aqueous Na2CO3 solution) to remove the acid used in cleavage. The DCM phase is dried over Na2SO4 and evaporated.
The ester substrates are assembled using standard acid-alcohol coupling procedures (K. Holmber et al, Acta Chem. Scand., B33 (1979) 410-412). Peptide fragments are dissolved in anhydrous pyridine (30-60 mg/ml) to which 10 molar equivalents of chromophore and a catalytic amount (0.1 eq.) of para-toluenesulfonic acid (PTSA) were added. Dicyclohexylcarbodiimide (DCC, 3 eq.) is added to initiate the coupling reactions. Product formation is monitored by HPLC and can be found to be complete following 12-72 hour reaction at room temperature. Pyridine solvent is evaporated under vacuum and further removed by azeotropic evaporation with toluene.

Row | SMILES | Ki
1 | CC(C)(C)[C@H](NC(=O)N[C@H](CN1Cc2ccccc2S1(=O)=O)C(C)(C)C)C(=O)N1C[C@H]2[C@@H]([C@H]1C(=O)NC(CC1CC1)C(=O)C(N)=O)C2(C)C (stereo partly shown) [Compound 5172] | ≤ 50 nM
2 | C=CCNC(=O)C(=O)C(CC1CC1)NC(=O)[C@@H]1[C@@H]2[C@H](CN1C(=O)[C@@H](NC(=O)N[C@H](CN1CCCCS1(=O)=O)C1CCCCC1)C(C)(C)C)C2(C)C (stereo partly shown) [Compound 5228] | ≤ 50 nM
3 | CCCCC(NC(=O)[C@@H]1[C@@H]2[C@H](CN1C(=O)[C@@H](NC(=O)N[C@H](CN1CCCS1(=O)=O)C(C)(C)C)C1CCCCC1)C2(C)C)C(=O)C(=O)NCC (stereo partly shown) [Compound 5236] | ≤ 50 nM
4 | CC(C)(C)[C@@H](CN1CCCCS1(=O)=O)NC(=O)N[C@H](C(=O)N1C[C@H]2[C@@H]([C@H]1C(=O)NC(CC1CC1)C(=O)C(N)=O)C2(C)C)C1CCCCC1 (stereo partly shown) [Compound 5186] | ≤ 50 nM
5 | C=CCNC(=O)C(=O)C(CCCC)NC(=O)[C@@H]1[C@@H]2[C@H](CN1C(=O)[C@@H](NC(=O)N[C@H](CN1Cc3ccccc3S1(=O)=O)C1CCCCC1)C(C)(C)C)C2(C)C (stereo partly shown) [Compound 5222] | ≤ 50 nM
6 | C=CCNC(=O)C(=O)C(CCCC)NC(=O)[C@@H]1[C@@H]2[C@H](CN1C(=O)[C@@H](NC(=O)N[C@H](CN1CCCS1(=O)=O)C(C)(C)C)C(C)(C)C)C2(C)C (stereo partly shown) [Compound 5112] | ≤ 50 nM
7 | CC(C)(C)[C@H](NC(=O)N[C@H](CN1Cc2sccc2S1(=O)=O)C(C)(C)C)C(=O)N1C[C@H]2[C@@H]([C@H]1C(=O)NC(CC1CCC1)C(=O)C(N)=O)C2(C)C (stereo partly shown) [Compound 5152] | ≤ 50 nM
8 | CNC(=O)C(=O)C(CC1CC1)NC(=O)[C@@H]1[C@@H]2[C@H](CN1C(=O)[C@@H](NC(=O)N[C@H](CN1CCN(C)S1(=O)=O)C(C)(C)C)C(C)(C)C)C2(C)C (stereo partly shown) [Compound 5167] | ≤ 50 nM
9 | CC(C)(C)[C@@H](CN1Cc2ccccc2S1(=O)=O)NC(=O)N[C@H](C(=O)N1C[C@H]2[C@@H]([C@H]1C(=O)NC(CC1CC1)C(=O)C(N)=O)C2(C)C)C1CCCCC1 (stereo partly shown) [Compound 5253] | ≤ 50 nM
10 | CCCCC(NC(=O)[C@@H]1[C@@H]2[C@H](CN1C(=O)[C@@H](NC(=O)N[C@H](CN1CCCCS1(=O)=O)C(C)(C)C)C1CCCCC1)C2(C)C)C(=O)C(N)=O (stereo partly shown) [Compound 5189] | ≤ 50 nM
11 | CC(C)(C)[C@@H](CN1CCCCS1(=O)=O)NC(=O)N[C@H](C(=O)N1C[C@H]2[C@@H]([C@H]1C(=O)NC(CC1CCC1)C(=O)C(N)=O)C2(C)C)C1CCCCC1 (stereo partly shown) [Compound 5187] | ≤ 50 nM
12 | C=CCNC(=O)C(=O)C(CC1CCC1)NC(=O)[C@@H]1[C@@H]2[C@H](CN1C(=O)[C@@H](NC(=O)N[C@H](CN1Cc3ccccc3S1(=O)=O)C(C)(C)C)C1CCCCC1)C2(C)C (stereo partly shown) [Compound 5263] | ≤ 50 nM
13 | C=CCNC(=O)C(=O)C(CCCC)NC(=O)[C@@H]1[C@@H]2[C@H](CN1C(=O)[C@@H](NC(=O)N[C@H](CN1CCCS1(=O)=O)C(C)(C)C)C1CCCCC1)C2(C)C (stereo partly shown) [Compound 5133] | ≤ 50 nM
14 | CC(C)(C)[C@H](NC(=O)N[C@H](CN1CCCS1(=O)=O)C(C)(C)C)C(=O)N1C[C@H]2[C@@H]([C@H]1C(=O)NC(CC1CCC1)C(=O)C(N)=O)C2(C)C (stereo partly shown) [Compound 5116] | ≤ 50 nM
15 | C=CCNC(=O)C(=O)C(CCC)NC(=O)[C@@H]1[C@@H]2[C@H](CN1C(=O)[C@@H](NC(=O)N[C@H](CN1Cc3sccc3S1(=O)=O)C(C)(C)C)C(C)(C)C)C2(C)C (stereo partly shown) [Compound 5139] | ≤ 50 nM

same assay, conditions: Table 2; ranges of Ki* values in HCV continuous assay

Row | SMILES | Ki
16 | C=CCNC(=O)C(=O)C(CC1CC1)NC(=O)[C@@H]1[C@@H]2[C@H](CN1C(=O)[C@@H](NC(=O)N[C@H](CN1C(=O)c3cc[n+]([O-])cc3C1=O)C(C)(C)C)C(C)(C)C)C2(C)C (stereo partly shown) [Compound 5772] | ≤ 50 nM
17 | C=CCNC(=O)C(=O)C(CCCC)NC(=O)[C@@H]1[C@@H]2[C@H](CN1C(=O)[C@@H](NC(=O)N[C@H](CN1C(=O)Cc3ccccc3C1=O)C(C)(C)C)C(C)(C)C)C2(C)C (stereo partly shown) [Compound 5737] | ≤ 50 nM
18 | C=CCNC(=O)C(=O)C(CCCC)NC(=O)[C@@H]1[C@@H]2[C@H](CN1C(=O)[C@@H](NC(=O)N[C@H](CN1C(=O)c3ccccc3C1=O)C(C)(C)C)C(C)(C)C)C2(C)C (stereo partly shown) [Compound 5613] | ≤ 50 nM
19 | C#CCCC(NC(=O)[C@@H]1[C@@H]2[C@H](CN1C(=O)[C@@H](NC(=O)N[C@H](CN1C(=O)CNC1=O)C(C)(C)C)C(C)(C)C)C2(C)C)C(=O)C(=O)NCC=C (stereo partly shown) [Compound 5804] | ≤ 50 nM
20 | CC1(C)CC(=O)N(C[C@@H](NC(=O)N[C@H](C(=O)N2C[C@H]3[C@@H]([C@H]2C(=O)NC(CC2CC2)C(=O)C(N)=O)C3(C)C)C(C)(C)C)C(C)(C)C)C(=O)C1 (stereo partly shown) [Compound 5761] | ≤ 50 nM
21 | CCCCC(NC(=O)[C@@H]1[C@@H]2[C@H](CN1C(=O)[C@@H](NC(=O)NC1(CN3C(=O)c4ccccc4C3=O)CCCCC1)C(C)(C)C)C2(C)C)C(=O)C(N)=O (stereo partly shown) [Compound 5680] | ≤ 50 nM
22 | C=CCNC(=O)C(=O)C(CC1CC1)NC(=O)[C@@H]1[C@@H]2[C@H](CN1C(=O)[C@@H](NC(=O)N[C@H](CN1CCCCC1=O)C(C)(C)C)C1Cc3ccccc3C1)C2(C)C (stereo partly shown) [Compound 5722] | ≤ 50 nM
23 | C=CCNC(=O)C(=O)C(CC1CC1)NC(=O)[C@@H]1[C@@H]2[C@H](CN1C(=O)[C@@H](NC(=O)N[C@H](CN1CCCNC1=O)C(C)(C)C)C(C)(C)C)C2(C)C (stereo partly shown) [Compound 5711] | ≤ 50 nM
24 | C=CCNC(=O)C(=O)C(CCCC)NC(=O)[C@@H]1[C@@H]2[C@H](CN1C(=O)[C@@H](NC(=O)N[C@H](CN1CCOC1=O)C(C)(C)C)C(C)(C)C)C2(C)C (stereo partly shown) [Compound 5631] | ≤ 50 nM
25 | C=CCNC(=O)C(=O)C(CC1CC1)NC(=O)[C@@H]1[C@@H]2[C@H](CN1C(=O)[C@@H](NC(=O)N[C@H](Cn1ccccc1=O)C(C)C)C(C)(C)C)C2(C)C (stereo partly shown) [Compound 5607] | > 50 nM
26 | C=CCNC(=O)C(=O)C(CCCC)NC(=O)[C@@H]1[C@@H]2[C@H](CN1C(=O)[C@@H](NC(=O)N[C@H](CN1CCCOC1=O)C(C)(C)C)C(C)(C)C)C2(C)C (stereo partly shown) [Compound 5703] | ≤ 50 nM
27 | CN1CCCN(C[C@@H](NC(=O)N[C@H](C(=O)N2C[C@H]3[C@@H]([C@H]2C(=O)NC(CC2CCC2)C(=O)C(N)=O)C3(C)C)C(C)(C)C)C(C)(C)C)C1=O (mixture of isomers) [Compound 5688] | ≤ 50 nM
28 | C=CCNC(=O)C(=O)C(CCCC)NC(=O)[C@@H]1[C@@H]2[C@H](CN1C(=O)[C@@H](NC(=O)N(C)[C@H](CN1C(=O)CNC1=O)C(C)(C)C)C(C)(C)C)C2(C)C (stereo partly shown) [Compound 5813] | ≤ 50 nM
29 | CC(C)(C)[C@H](NC(=O)N[C@H](CN1C(=O)CNC1=O)C(C)(C)C)C(=O)N1C[C@H]2[C@@H]([C@H]1C(=O)NC(CC1CC1)C(=O)C(N)=O)C2(C)C (stereo partly shown) [Compound 5811] | ≤ 50 nM
30 | C=CCNC(=O)C(=O)C(CC1CCC1)NC(=O)[C@@H]1[C@@H]2[C@H](CN1C(=O)[C@@H](NC(=O)N[C@H](CN1Cc3ccccc3C1=O)C(C)(C)C)C(C)(C)C)C2(C)C (stereo partly shown) [Compound 5744] | > 50 nM
31 | C#CCCC(NC(=O)[C@@H]1[C@@H]2[C@H](CN1C(=O)[C@@H](NC(=O)N[C@H](CN1C(=O)CC(C)(C)CC1=O)C(C)(C)C)C1CCCCC1)C2(C)C)C(=O)C(=O)NCC=C (stereo partly shown) [Compound 5785] | ≤ 50 nM
32 | CCCC(NC(=O)[C@@H]1[C@@H]2[C@H](CN1C(=O)[C@@H](NC(=O)N[C@H](CN1CCCCC1=O)C(C)(C)C)C1Cc3ccccc3C1)C2(C)C)C(=O)C(=O)NC1CC1 (stereo partly shown) [Compound 5789] | ≤ 50 nM
33 | CCCCC(NC(=O)[C@@H]1[C@@H]2[C@H](CN1C(=O)[C@@H](NC(=O)N[C@H](CN1CCCCC1=O)C(C)(C)C)C1(C)CCCCC1)C2(C)C)C(=O)C(=O)NCC (stereo partly shown) [Compound 5790] | ≤ 50 nM
34 | C=CCNC(=O)C(=O)C(CCCC)NC(=O)[C@@H]1[C@@H]2[C@H](CN1C(=O)[C@@H](NC(=O)N[C@H](CN1C(=O)CCCC1=O)C(C)(C)C)C(C)(C)C)C2(Cl)Cl (stereo partly shown) [Compound 5752] | ≤ 50 nM
